Data reported in PubChem BioAssay (NCI).
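48-hour exposure; five concentrations; linearly interpolated endpoints. GI50: concentration for 50% inhibition of growth. At the TGI there is no net growth.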

Test system: NCI-H322M lung
Assay: NCI tumour cell line growth inhibition, 48 h

In order of rising GI50:
1. CC1=C(CN(O)C(N)=O)C2=C(C)C3(CC3)[C@@](C)(O)C(=O)C2=C1  183 nM
2. O=C(NNc1nc2cc(F)ccc2n2cccc12)c1ccncn1  195 nM
3. COc1cccc(N2CCN(c3ncnc4c3[nH]c3ccc(F)cc34)C[C@@H]2C)c1  2020 nM

Going from `COc1cccc(N2CCN(c3ncnc4c3[nH]c3ccc(F)cc34)C[C@@H]2C)c1` to `O=C(NNc1nc2cc(F)ccc2n2cccc12)c1ccncn1`, the TGI rises from 4490 nM to over 30000 nM.

`CC1=C(CN(O)C(N)=O)C2=C(C)C3(CC3)[C@@](C)(O)C(=O)C2=C1` showed a TGI of 727 nM.
